The supplement of paper PMC10185492
This is one part of the list. These are enrichments in a pooled selection; single values are uncertain.

system: SARS-CoV-2 3CLpro (nsp5); assay: substrate phage enrichment score (protease-eluted vs HEPES control, +1 offset) (ratio); higher = better cleaved substrate; settings: selection round: 3; protease elution time: 0.5 h
Experimental: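 Random heptapeptide substrate phage display (M13 pIII fusion, heptapeptide between an N-terminal biotinylated AviTag GLNDIFEAQKIEWHE and pIII; phages immobilised on streptavidin) eluted by cleavage with 50 nM protease in 20 mM HEPES at 37 °C. Selected phages were NGS sequenced, and the enrichment score is (reads in protease sample + 1)/(reads in HEPES blank-selection control + 1).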

Substance	substrate phage enrichment score
RQSSRLS	2.73
TKNKEAG	2.45
NASAEMS	> 24
IITITGP	1.08
VYMESRQ	> 22
HSAAHHH	1.56
PLRCYLY	> 23
RATAHHH	2.1
IEATGVI	> 25
ISAAHHH	0.981
TQYFQGG	1
GRSANAP	0.25
SCAAHHH	3
AVQVSHP	1.8
SKTILLQ	> 60
RGRTILQ	> 222
PLLQGMI	6.67
VRTGTKL	> 26
WAPTTPL	> 34
SNTRSPK	3.6
TTNNWKA	2.27
SQQNAPL	0.679
ARMPLMM	> 23

Substance	substrate phage enrichment score
NLPVRLQ	> 95
EQQAQTT	1.75
LMRSTLQ	> 32
GQYFQGG	1.2
DQSTNLR	9.75
VCPQVKN	2.92
TRQRPAP	4.86
KSTAAHH	1.25
EGPSAMV	5.4
SCDEQHT	> 39
RNQTPET	> 40
SVSPESH	18.5
TKKCLLQ	> 22
ELVEDPV	1.15
QSPVRLQ	11.7
AAQLQGV	> 26
CRVSQPG	> 21
PYFQGGS	1.41
SAAIGAK	3.17
MPSWSPS	> 24
PALLNSG	17.8
KGTLRPV	3.21
SDFQGGS	1.05

Substance	substrate phage enrichment score
WPIFQVT	2.14
QSGDATD	10.2
KSQKFDV	3.57
VRPHIIN	1.28
EEADPER	0.0606
KSLAQCQ	6.29
EPGTAQH	3.12
SASTSNR	> 29
DVAAHHH	0.853
HGNEVSD	2.14
NFHPKLG	2.14
SAAAHPH	0.689
WSAAHHH	1.33
NNYSVQG	2.11
NDNPKNR	0.258
RSPSLLQ	> 65
PCTVTMQ	> 29
SHREEYQ	> 69
RKEVQMQ	43
IPIHCDR	4.09
FSCLPGP	14.5
IETEDVT	> 78
KTKSECT	2.79

Substance	substrate phage enrichment score
RNAAAHH	2
LKAAHHH	1.28
VSGAAPC	> 25
RLPFQGG	9.67
SSWPPEG	> 24
SAAAPQH	1.87
WQHHDGK	> 36
DRSRTES	1.25
PDFQGGS	0.939
SGSAILT	> 34
SCEVFRH	2.14
NDNWMPV	0.769
ARCSQTF	> 21
RNTCVLQ	> 68
KTTLQSN	244
ARGELDA	13.5
ERNGYRC	4.75
LVRPHII	1.2
KAHLKDS	1.88
VVNKTAD	1.44
NSAATLS	1.67
HYPLMKP	> 23
LPRTHHS	0.976

Substance	substrate phage enrichment score
CNFQGGS	1.5
QCPRPGQ	16.7
LTGVSDR	3.6
DESNDMI	1.5
RAYQLNA	23.5
VPTTTLQ	> 37
CSAHNMR	10.7
HHHGAAE	1.08
VGSAAAH	0.533
SHLSVLH	13.5
LGGSAAA	1.39
VTESAPW	3.93
AGAAHHH	0.533
RSLDLTA	6.55
SRLTSSG	16.7
KRCTKLQ	> 21
GPTDFDR	0.0606
PAHTDIR	7.67
GSAAAHH	0.827
CGKLGVY	2.54
GIPAVSQ	8.67
RNESLNP	> 30
CKHGSAR	3.83

Substance	substrate phage enrichment score
EDCGSRS	4.8
EIPVPST	> 24
REAEDRQ	2.25
SWTCHLQ	> 64
SMGSSGR	8.43
EKYGSPL	14.5
TESLRRR	4.6
RNEACTT	> 22
RQNEILR	> 33
SSNAAAH	2.67
VGAAHHH	0.643
FNEPGTP	23
EPWPAKM	0.8
HASEWVP	0.571
RKSAHHH	0.412
GRPHIII	1.44
WKEQSKK	11
RPEPTKQ	3.17
ENPRNAD	11.2
CNAAAHH	1.21
PSRRRNG	1.3
SNLPALQ	32.5
YQASGAR	> 21

Substance	substrate phage enrichment score
DMGPCIR	2.3
LKNAALQ	39.3
FKYPGDR	> 28
STHQKKC	> 26
TNKPAQV	1
LATFRGS	4.54
GSCKRQS	> 44
LQGIHRS	0.0625
CYEAGWH	> 25
PSKPTLH	> 77
SCRQKPA	> 22
YTSTPQE	8
ETCPLPA	13.5
LETHGGS	> 25
ALNFQGG	3.29
PDCLMCA	2.18
HKAAHHH	0.421
CSTGMVN	9.75
LAAAHHH	0.965
HGCSGLQ	> 25
CQSDTYG	3.68
GNAQSWQ	> 23
RQPPAAN	2.14

Substance	substrate phage enrichment score
NDAAHHH	1.35
VKAAHHH	2.12
AGGQLKA	> 23
CEQGIWY	2.62
THSRLCP	1
RKPCLVQ	4.56
ERDGKAP	> 23
IDAAHHH	1.19
HQNFERA	> 23
ASPTTLQ	> 28
SKTPVKT	5.11
LQGGSAA	1.31
CFSPLWP	4.9
LLLNSGR	11
DISALMH	10
AESSKAR	> 23
ESNMLHQ	> 23
RSALTRQ	> 24
MTAAHHH	1.54
SSSEIRQ	30
ESWGCQR	> 23
ENFWGPR	6
